Over roughly 110,000 compounds, “z-score” has its median near -0.1; the highest 2% begin near 2. Some of the results follow. Calls of active or inactive are those of the source.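 How the source made its calls: active means z-score in the third read window above 3 or below -3; inactive means the rest.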
What follows are compounds tested against Metabotropic glutamate receptor 8 (Rattus norvegicus) (UniProt P70579) (assay: rat mGluR8 modulators via GIRK flux, primary screen, cell-based, thallium flux, HTS (AID 488969)). Conditions: HEK293 rat mGluR8, GIRK (G protein-gated inwardly rectifying potassium channel) thallium flux, FluoZin2; at 10 µM; stronger effect = higher value; submaximal glutamate (EC20) added with thallium.
Chain of UniProt P70579 (P70579 whole entry, looked up): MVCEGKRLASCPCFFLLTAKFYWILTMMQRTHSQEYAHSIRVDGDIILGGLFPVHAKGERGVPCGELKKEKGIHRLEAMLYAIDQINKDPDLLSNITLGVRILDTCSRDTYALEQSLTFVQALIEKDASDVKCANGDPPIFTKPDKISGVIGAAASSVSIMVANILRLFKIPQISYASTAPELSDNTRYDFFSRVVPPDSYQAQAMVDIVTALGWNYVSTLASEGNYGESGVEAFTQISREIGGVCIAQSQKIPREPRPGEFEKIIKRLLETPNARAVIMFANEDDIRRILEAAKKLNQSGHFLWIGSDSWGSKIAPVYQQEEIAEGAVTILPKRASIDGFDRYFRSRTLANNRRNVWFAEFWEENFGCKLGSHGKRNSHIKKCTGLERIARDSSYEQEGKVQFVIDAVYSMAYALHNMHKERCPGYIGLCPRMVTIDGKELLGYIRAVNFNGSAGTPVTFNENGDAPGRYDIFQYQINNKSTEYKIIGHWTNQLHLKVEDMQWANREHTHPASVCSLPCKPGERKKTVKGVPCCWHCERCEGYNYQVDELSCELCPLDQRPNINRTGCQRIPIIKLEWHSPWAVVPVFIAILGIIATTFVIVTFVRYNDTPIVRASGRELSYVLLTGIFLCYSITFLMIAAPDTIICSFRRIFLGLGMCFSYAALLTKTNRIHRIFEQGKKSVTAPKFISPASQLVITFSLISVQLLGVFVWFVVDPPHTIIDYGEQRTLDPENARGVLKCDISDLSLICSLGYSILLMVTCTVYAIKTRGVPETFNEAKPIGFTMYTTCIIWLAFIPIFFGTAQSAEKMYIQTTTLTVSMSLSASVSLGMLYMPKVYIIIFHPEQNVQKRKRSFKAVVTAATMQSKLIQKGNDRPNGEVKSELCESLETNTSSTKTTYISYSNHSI

Row | SMILES | z-score
1 | Cc1ccc(-n2[nH]c(C)c(/C=N/n3c(C)nc4ccccc4c3=O)c2=O)cc1 | 0.177
2 | Cc1oc(-c2cccs2)[n+]([O-])c1C | 0.125
3 | O=C(O)CCCCCn1c(SCC(=O)N2CCCC2)nc2ccsc2c1=O | -0.486
4 | CCC(=O)Nc1ccc(N2CCN(Cc3ccccc3)CC2)cc1 | 0.042
5 | COc1ccc(-c2noc(-c3ccccc3C(=O)N3CCOCC3)n2)cc1 | 0.106
6 | CCC(=O)N1c2ccccc2NC2=C(C(=O)CCC2)C1c1ccc(N(C)C)cc1 (stereo not given) | 0.0529
7 | COc1cc(/C=C/C(C)=O)cc(OC)c1OC | -0.0769
8 | C=C(Br)CN1CCN(CC(=C)Br)CC1 | 0.307
9 | CN(C)c1nc(C(=O)Nc2ccccc2)nc(N(C)C)n1 | -0.064
10 | CC(=O)CCC(=O)c1ccc2ccccc2c1 | -0.0483
11 | CCSC1=C(C#N)C(c2cccc(O)c2)CC(=O)N1 (stereo not given) | -0.424
12 | N/C(Cc1cccs1)=N\OC(=O)COc1ccc(Cl)cc1Cl | -0.23
13 | Cn1cc(SCC(=O)N2CCOCC2)c2ccccc21 | -0.146
14 | COC(=O)c1[nH]c2cc(OC)ccc2c1NC(=O)CCN1CCSCC1 | -0.128
15 | CCOC(=O)Cn1nnnc1CN(Cc1ccc(OC)cc1)Cc1cc2cc(C)ccc2[nH]c1=O | 1.32
16 | COC(=O)c1ccccc1NC(=O)CN(C)S(=O)(=O)c1ccc(OC)c(C)c1 | -0.0547
17 | O=C(Cn1c(=O)n(Cc2ccco2)c(=O)c2c3c(sc21)CCCCC3)c1ccccc1 | -0.0852
18 | CCn1c(=O)c(C(=O)CN2CCN(S(=O)(=O)c3cc(C)ccc3C)CC2)c(N)n(Cc2ccccc2)c1=O | -0.333
19 | CC(C)OC(=O)CSc1nnc(-c2ccc(Cl)cc2Cl)o1 | -0.122
20 | COCCCn1c(SCC(=O)N2CCc3ccccc32)nnc1-c1ccco1 | -0.129
21 | c1ccc(CCC2=NCCn3cccc32)cc1 | 0.441
22 | CCOC(=O)c1c(C)[nH]c2c1-c1ccccc1C(=O)C2=O | -0.0871
23 | COc1ccc(CCNC(=O)CSc2nc3ccccc3o2)cc1OC | 0.323
24 | COc1ccnc(Oc2ccccc2)c1C#N | -0.0884

Row | SMILES | z-score
25 | COc1ccc(/C=N/OC/C(O)=C(\C#N)c2nc3ccccc3[nH]2)cc1 | -0.288
26 | COc1ccc(N2C(=O)CC(Sc3nccc(C)n3)C2=O)cc1 (stereo not given) | 1.91
27 | Cc1cccc(-c2c3c(=O)n(C)c(=O)n(C)c3cn2C(C)(C)C)c1 | -0.413
28 | O=C(CNC(=O)c1ccccc1)OCc1nc2ccccc2s1 | -0.296
29 | CC1CCN(S(=O)(=O)c2cccc(C(=O)O)c2)CC1 | 0.000459
30 | Cc1ccc(C(=O)N/N=C/c2sc(=O)n(Cc3cccc(C(=O)O)c3)c2Cl)cc1 | -0.0929
31 | CNC(=O)c1ccccc1NC(=O)c1ccco1 | 0.283
32 | Cc1ccc(S(=O)(=O)N2CCN(C(=O)CN3CCCCC3)C2C(C)C)cc1 (stereo not given) | -0.0208
33 | C/C(=N\NC(=O)c1ccc(NS(=O)(=O)c2cccs2)cc1)c1ccc(C(C)(C)C)cc1 | -0.518
34 | Cc1[nH]c2ccccc2c1C1(O)C(=O)N(Cc2ccc3c(c2)OCO3)c2ccccc21 (stereo not given) | 0.17
35 | O=C(Nc1ccc(Cl)c([N+](=O)[O-])c1)C(NCCCO)c1ccccc1 (stereo not given) | 0.306
36 | COc1ccc(N2C(C(C)=O)=NN(c3ccccc3)C2c2cccs2)cc1 (stereo not given) | -1.15
37 | O=C(/C=C/Nc1cccc(C(F)(F)F)c1)C(F)(F)F | 0.118
38 | COc1cc(F)ccc1S(=O)(=O)N1CCN(C23CC4CC(CC(C4)C2)C3)CC1 | -0.185
39 | C/C(=N\NC(=O)COc1ccc(C(C)(C)C)cc1)c1ccc(OC(F)F)cc1 | 0.318
40 | Cc1ccc(OCCCC(=O)Nc2ccc(N3CCOCC3)cc2)cc1 | 0.0795
41 | Cc1ccc2[nH]c(=O)c(C(c3nnnn3C3CCCC3)N3CCCc4ccccc43)cc2c1 (stereo not given) | 0.211
42 | OC(CN1C2=NCCN2c2ccccc21)c1ccc2c(c1)OCO2 (stereo not given) | -0.0192
43 | Cc1cc(OCCN2CCCCCC2)ccc1[N+](=O)[O-] | 0.379
44 | c1ccc(CCc2ccccc2-c2nc(-c3ccccn3)no2)cc1 | 0.258
45 | Cn1nc(C(=O)NNC(=O)COc2ccccc2)c2ccccc2c1=O | -0.0385
46 | CCOc1ccc(Cl)cc1CNCCNCCO | 0.172
47 | OC(CNCC1CCCO1)Cn1c2ccc(Br)cc2c2cc(Br)ccc21 (stereo not given) | active: 3.72
48 | O=C(c1ccccc1)c1cc([N+](=O)[O-])ccc1N1CCCC1 | -1.47

Row | SMILES | z-score
49 | Cc1ccc(NC(=O)c2ccco2)c(NC(=O)CN2C(=O)c3ccccc3C2=O)c1 | -0.313
50 | CC(C)(C)C(=O)N1CCC(O)(CS(=O)(=O)Cc2ccc(Cl)cc2)CC1 | -0.121
51 | Cc1ccc(-n2nc3c(c2NC(=O)c2ccc(OC(C)C)cc2)CS(=O)C3)cc1 (stereo not given) | -0.464
52 | N#Cc1ccc(C(=O)Nc2cc(S(=O)(=O)N3CCCC3)ccc2OCC(F)(F)F)cc1 | -0.245
53 | C=CCn1c(-c2cccn(Cc3ccc(Cl)cc3Cl)c2=O)n[nH]c1=S | -0.0632
54 | COc1cc(CC(=O)OCC(=O)c2ccc3c(c2)OCCO3)cc(OC)c1OC | -0.307
55 | O=C(NCCSc1ccccc1)c1ccc(Br)cc1 | -0.433
56 | N#C/C(=C/c1cc(Br)cs1)C(=O)NCC1CCCO1 (stereo not given) | -0.0741
57 | O=C(NCc1cccs1)c1cc(-c2cccc(Cl)c2)on1 | -1.01
58 | COc1ccccc1NC(=O)CSc1nnc(C)n1CC1CCCO1 (stereo not given) | 0.373
59 | COc1ccc(C2CC(c3ccc4ccccc4c3OC(C)=O)=NN2C(=O)/C=C/c2ccccc2)cc1 (stereo not given) | -0.112
60 | O=C(CSCc1ccc(Cl)cc1)Nc1ccc(-c2nnc(-c3ccccc3)o2)cc1 | -0.47
61 | O=C(NC(Cc1ccccc1)C(=O)O)c1ccc(S(=O)(=O)N2CCCCC2)cc1 (stereo not given) | -0.916
62 | COc1cc(/C=C(/NC(=O)c2ccccc2)C(=O)Nc2ccc(O)cc2)c([N+](=O)[O-])cc1OC | -0.493
63 | CN(C)c1nc(C(N)=O)nc(N2CCOCC2)n1 | 1.76
64 | CCC(Sc1nc2ccccc2c(=O)[nH]1)C(=O)O (stereo not given) | 0.219
65 | COc1ccccc1CN(Cc1ccco1)S(=O)(=O)c1ccc(-n2cnnn2)c(OC)c1 | 0.201
66 | CCCC1=[N+](CC(=O)c2ccccc2)CCn2cccc21 | 0.0891
67 | O=C(O/N=C/c1ccc2c(c1)OCO2)c1ccccc1Cl | 0.0816
68 | Cc1cc(Nc2ccccc2)nn1C(=O)c1ccc(Cl)cc1 | -0.0996
69 | Cc1cc(C)n(CC(=O)N2N=C(C(F)F)CC2(O)C(F)F)n1 (stereo not given) | -0.229
70 | O=C(/C=C/c1ccccc1Cl)NCc1ccccc1 | -0.0585

Source: PubChem BioAssay AID488969 (Vanderbilt High Throughput Screening Facility, 2010)
